Test results from the supplement of paper PMC11417369.
± gives the standard deviation of the averaged measurements. The list shows a part of the results.

test system: PfAP2-LT AP2 domain (GST-tagged); test: gcPBM binding intensity (ln(normalized median fluorescence intensity)); higher = stronger DNA binding
In short: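 GST-tagged P. falciparum DNA-binding domains, expressed in E. coli (about 25 μg on average), were applied for 1 h to an Agilent 4 × 180k array of primer-extended double-stranded 36-bp intergenic genomic probes plus negative controls. The binding buffer was 1× PBS with 1% milk, 0.2 mg/ml BSA, 0.5% salmon testes DNA and 0.03% Triton X-100. Bound protein was detected with Alexa488 anti-GST antibody and scanned at 488 nm. Binding intensity is the highest Masliner-normalised natural-log median intensity across replicate spots of either probe orientation.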

Sequence | gcPBM binding intensity (ln)
AAATGAACATATATGTGTACTTATATTTTTCTAAAT [XGTACX_site3388] | 8.77 ± 0.37
AAAAAAAAAAAAAAAGTGCATATATAAATATTGTAT [GTGCAC_site9459] | 8.62 ± 0.52
TCATTAAATGTTTAGGTGCATACTTTAATTTTTAAT [GTGCAC_site9906] | 8.52 ± 0.44
TTTAAAAAATAATATTGTACTATTCTCCCAATTTCT [XGTACX_site7079] | 8.44 ± 0.57
AAAAAATTTCAAATAACACACACTAATATAAATATG [CACACA_site6783] | 9.04 ± 0.34
TAACTTTGGAGGAGCTGTACGATTATTTTGATCCTT [XGTACX_site2514] | 8.86 ± 0.39
ATATACTGTATGAAAGCACACATACTTATTACTAAC [CACACA_site9384] | 8.97 ± 0.31
ATGTGAAAATAAGACACACTCAAAAGGTTTATATTA [CACACA_site4595] | 9.01 ± 0.45
TTTTTATATAATTTAACACACATTTCATATAAAAAA [CACACA_site3103] | 8.29 ± 0.39
TGGGAAAAAATATATGCACACCCCCCAAAAAAAAAA [CACACA_site8696] | 10.48 ± 0.071
AATTCTTTATTATATGCACACGTACATATAATATAT [CACACA_site8621] | 9.07 ± 0.38
AAAAAATGTTATAAAAGTACATAATTTATCTACCAT [XGTACX_site3035] | 8.6 ± 0.42
ATAAATATAAAACACACACACATATTATATATATAT [CACACA_site3064] | 9.72 ± 0.3
AAAAAAAAAAAAAAGTGTACCTTCAAAATAATATTG [XGTACX_site2844] | 8.43 ± 0.48
CTATATATAACCCATGTGCACTTTTTATGTACAATA | 8.99 ± 0.42
CCTTTTTCTACTTTCTCACACATATTAAGAATTATA [CACACA_site5621] | 8.65 ± 0.4
TCTTTCCTTATTAAAACACACAAATACATTATTTAA [CACACA_site2147] | 8.45 ± 0.43
AAAAAATGAAAAAACTGTACGCAATTTTGTTTTTAT [XGTACX_site2299] | 8.76 ± 0.39
AAGTTTTTTTTTATCACACACAAAAAAAAAAATATA [CACACA_site1362] | 8.82 ± 0.52

Sequence | gcPBM binding intensity (ln)
GGAGACTTTGTACAAACACACACATGAACACAATAT [CACACA_site8376] | 9.58 ± 0.41
TAATTTAAAAATGAACATATATATGTATGTAAATAT [TGCATGCA_negctrl_site135] | 8.88 ± 0.33
TCTTCACCACGTGGAAGTACATAAAAAGATACACAA [XGTACX_site4747] | 8.89 ± 0.37
TTTTAATATATAGAGTAACAAATTTGTCTATTAATA [CACACA_negctrl_site1495] | 8.49 ± 0.47
ATGTATATATTTATGTGTACTTAAATTTTTTTTTGT [XGTACX_site8179] | 8.73 ± 0.4
CATCTTAAATAAGAACGTACATTTTTTTTGATGAGA [XGTACX_site3462] | 8.44 ± 0.33
AAGACAAAACAAAGAAGTACATATATATATATATAT [XGTACX_site4067] | 9.93 ± 0.11
AATAATATTAACACACGTACAAAAGCAAACAACCAA [XGTACX_site7410] | 9.42 ± 0.35
ATACATTCTAATACGTGTACATATATATATATATAT [XGTACX_site1881] | 9.39 ± 0.52
ATAAAACAAAAACACACACACATACACAAAAAAAAA [CACACA_site3848] | 10.1 ± 0.3
TTTATATTATTATATCTTATTAATTATTTATCATTT [TGCATGCA_negctrl_site73] | 8.56 ± 0.69
TGATGCAAAATATATACACACATATATATATATATA [CACACA_site3052] | 9.91 ± 0.33
CATATACATTGTATATGTACATATATATATATATAT [XGTACX_site3772] | 9.5 ± 0.071
GATTATATATTAAAAAGTACTTTATAAATACTTCTA [XGTACX_site8992] | 8.41 ± 0.42
CAAAGCATAGTATGATGTACAAATGTTCCTATAATA [XGTACX_site8642] | 8.89 ± 0.55
ATATATATATAATATTGTACATAGTAGACATCACAC [XGTACX_site4649] | 9.11 ± 0.38
TCTTATTATAAAAGGAGTACATCAATTAGATGTTCC [XGTACX_site8465] | 8.39 ± 0.45
TAAAATATGGAAATCACACATTTATTAAAATATATA [CACACA_site4623] | 8.48 ± 0.5
TATATATGTATAAGAGTGCATATGCATATATGTATA [GTGCAC_site9692] | 9.03 ± 0.39

Sequence | gcPBM binding intensity (ln)
TTATGTTTATACACTACACACATTATTCATAAAAAA [CACACA_site4637] | 8.71 ± 0.34
TATGGGTTTATATAGGTGCAATATATGTATATATAA | 8.62 ± 0.39
TATACCACCCGATATACACACTTGTAGACATCTTTT [CACACA_site4268] | 9.02 ± 0.33
AGCAATATTTATTAAAGTACGTAAAAAAAATTCTCA [XGTACX_site6550] | 8.6 ± 0.53
AACCATTGGGAAAGGGTGCACATATATATATATATA | 10.09 ± 0.099
TATATAGTTTATATTTGTACATATAGACATTTATAA [XGTACX_site6414] | 8.46 ± 0.45
ACAAAACTCTTTAATTGTACAAATATAATATAAAAA [XGTACX_site5690] | 8.71 ± 0.35
TATTGTATATAATAAACACACAATATTAAAAATATA [CACACA_site1057] | 8.78 ± 0.4
TATTTAAAAAACACATGTACGAGTATTATATATAAA [XGTACX_site6654] | 8.62 ± 0.4
AGTATATTAAAAAATACACACGTATTATATCTACAT [CACACA_site8844] | 9.02 ± 0.45
GTTCATAAATTAAACACACACACACCGCTGGATACC [CACACA_site5779] | 9.77 ± 0.16
TAATATACTTAATACACACACGAATATTTATAAATA [CACACA_site6675] | 9.11 ± 0.34
AAACTCAACTTATATACACACAATCTTTTTTTTTTA [CACACA_site29] | 8.74 ± 0.35
CCCCTCGAAATAATTTGTACGAATATATTGTCTGTA [XGTACX_site8308] | 9.22 ± 0.14
GATTCATCTAAACACCGTACATATTATATATATATA [XGTACX_site6030] | 8.95 ± 0.15
TTAATTCGTACATACACACGCACATATATATATATA [CACACA_site1469] | 9.695 ± 0.05
ATTGGAAAATATGTTATATATATATATATATATATG [CACACA_negctrl_site116] | 9.05 ± 0.35
ATATTTTTTTTCTACACACATACAAATATATATTAT [CACACA_site2359] | 9.11 ± 0.39
AATAATAATAGAAACACACACACATCTTTAATAATA [CACACA_site4805] | 9.895 ± 0.092
